Results published in the supplement of paper PMC10126150.
Values marked as one replicate rest on one cluster of the flow cell; about a third of the high ones do not repeat.

Test system: ATP
Test: switch fluorescence ratio, 500 uM ATP over buffer (Cy3 cluster intensity, sum of 5 cycles each) (fold (ratio)); higher = stronger signal-on switching upon ATP binding; sequences stand for … in TCGTCGGCAGCGTCAGATGTGTATAAGAGACAGTTTTTTTTTTTTTTTTTTTTTTTTT…TC
Conditions: aptamer strand: ATP DNA aptamer (quencher-CACCTGGGGGAGTATTGCGGAGGAAGG + anchor), 100 nM annealed; ATP concentration: 500 uM; one replicate
How it was run: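 Clusters with intensities outside 100-1000 RFU were excluded. The remaining Cy3-labelled switching-strand clusters on a modified Illumina MiSeq flow-cell had been annealed to 100 nM quencher-labelled ATP aptamer and imaged in selection buffer, then after 15 min with 500 uM ATP at 22 °C, for five cycles separated by NaOH stripping and re-annealing. The fluorescence ratio, averaged per switch-domain sequence, is each cluster's summed target-cycle Cy3 intensity over its summed buffer-cycle Cy3 intensity.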
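Also: ATP exposure 15 min at 22 °C before imaging.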

## AGTTCAAGAG
  switch fluorescence ratio: 1.01

## CTGGGTTAGA
  switch fluorescence ratio: 0.966

## TTTACACATA
  switch fluorescence ratio: 1.1

## TTTCCATTTC
  switch fluorescence ratio: 0.994

## TATGATGTA
  switch fluorescence ratio: 0.985

## CATTGACCTG
  switch fluorescence ratio: 1.04

## CCTTCGTACT
  switch fluorescence ratio: 4.76

## TAAAGCAAGG
  switch fluorescence ratio: 1.09

## TGAATGGGTT
  switch fluorescence ratio: 1.1

## CATACCTTAT
  switch fluorescence ratio: 1.03

## CAGACTGGGC
  switch fluorescence ratio: 1.02

## GGAGAATGGA
  switch fluorescence ratio: 0.972

## TCAACAGCTT
  switch fluorescence ratio: 1.03

## ATCCGGGGGC
  switch fluorescence ratio: 1.16

## TATCCGACTA
  switch fluorescence ratio: 1.11

## ACCACGGTGG
  switch fluorescence ratio: 0.954

## CTAGGATGGG
  switch fluorescence ratio: 0.988

## CCCGGCGGGG
  switch fluorescence ratio: 1.06

## GAAAATCTGG
  switch fluorescence ratio: 1.02

## ATAGACTCGG
  switch fluorescence ratio: 0.957

## GCTTGACTTT
  switch fluorescence ratio: 0.94

## TGGCTACT
  switch fluorescence ratio: 1.14

## AACGGGCAAT
  switch fluorescence ratio: 1.39

## TTCAAAGCTA
  switch fluorescence ratio: 1.16

## TTCTTGGCAG
  switch fluorescence ratio: 0.994

## GGATTGTAGT
  switch fluorescence ratio: 1.03

## ATCTCGGTAG
  switch fluorescence ratio: 0.959

## TTGGCGACGC
  switch fluorescence ratio: 1.01

## GTTGCTGAGG
  switch fluorescence ratio: 1.01

## TATAGGATAA
  switch fluorescence ratio: 0.993

## CCCTGTATAA
  switch fluorescence ratio: 1.08

## TACTTGCA
  switch fluorescence ratio: 1.09

## ATAGGGAGAT
  switch fluorescence ratio: 0.996

## CTTGGCTAAA
  switch fluorescence ratio: 1

## TCAGCTAATT
  switch fluorescence ratio: 1.03

## ATGAGCGTTG
  switch fluorescence ratio: 0.971

## AGTGGGGGCA
  switch fluorescence ratio: 0.985

## GAGGGCAACG
  switch fluorescence ratio: 0.967

## CGGGTCCTAT
  switch fluorescence ratio: 0.975

## CCAAGACTTC
  switch fluorescence ratio: 1.17

## AGCACTGTCG
  switch fluorescence ratio: 0.917

## GAACCAGGTA
  switch fluorescence ratio: 1.14

## TTATGTCGGT
  switch fluorescence ratio: 0.981

## ATACGAAAGA
  switch fluorescence ratio: 1.01

## TATGTTAGAA
  switch fluorescence ratio: 1.02

## TGCCAGGCGA
  switch fluorescence ratio: 1.02

## CCTAAATCCC
  switch fluorescence ratio: 1.03

## ACTAGGCTAG
  switch fluorescence ratio: 0.953

## GCCCTTTGAG
  switch fluorescence ratio: 0.982

## AATCGCTTCA
  switch fluorescence ratio: 1.05

## GTGATCGGAT
  switch fluorescence ratio: 0.979

## TTTAATCCCA
  switch fluorescence ratio: 1.03

## TATTCCGTTG
  switch fluorescence ratio: 1

## TTGGTAGGGA
  switch fluorescence ratio: 1.01

## AGCATTTGG
  switch fluorescence ratio: 1

## TATGAGAAG
  switch fluorescence ratio: 1.01

## ACCGGGTTGA
  switch fluorescence ratio: 1.02

## ATCGTGAGAG
  switch fluorescence ratio: 1.02

## CACGTGTGGG
  switch fluorescence ratio: 0.997

## GCGCTATGGT
  switch fluorescence ratio: 1.11

## GAGAACCCAT
  switch fluorescence ratio: 1.01

## TTCGTCTTTG
  switch fluorescence ratio: 0.956

## CACATGATTT
  switch fluorescence ratio: 1.01

## TAAGTTGAGG
  switch fluorescence ratio: 1.01

## CGCGCCGATT
  switch fluorescence ratio: 1.05

## TATTTATTTC
  switch fluorescence ratio: 1.02

## TGAGGACGTT
  switch fluorescence ratio: 0.943

## AGGCGCAAAA
  switch fluorescence ratio: 1.05

## GCCTAGGTAT
  switch fluorescence ratio: 1

## TCGAGACTGT
  switch fluorescence ratio: 1.01

## AAGAGGCCTG
  switch fluorescence ratio: 0.952

## TTTGTATAGC
  switch fluorescence ratio: 0.992

## CCGGCCGGC
  switch fluorescence ratio: 1.02

## TTGTTTTTAA
  switch fluorescence ratio: 1.02

## ACGAAATATC
  switch fluorescence ratio: 2.6

## ATAGGAGCC
  switch fluorescence ratio: 1.02

## CCAACATTGG
  switch fluorescence ratio: 1

## GTAGGCGGAC
  switch fluorescence ratio: 0.999

## AATAAGCCGT
  switch fluorescence ratio: 1.06

## GGTGAAGTG
  switch fluorescence ratio: 0.981

## AGAGATTCTA
  switch fluorescence ratio: 1.02

## GCGGTTGGCG
  switch fluorescence ratio: 1

## AGACTCACA
  switch fluorescence ratio: 1.29

## TTATTAACAC
  switch fluorescence ratio: 1.03

## AAGTGCGGGT
  switch fluorescence ratio: 1.02

## TTCACTCGCA
  switch fluorescence ratio: 1.11

## AAGTGGTGCG
  switch fluorescence ratio: 0.972

## AGTTAGACTA
  switch fluorescence ratio: 0.972

## GTAATTAGTG
  switch fluorescence ratio: 1.01

## TAATTTTTAC
  switch fluorescence ratio: 1.03

## AGTCGGCGAG
  switch fluorescence ratio: 1.02

## TTCTTCCCTC
  switch fluorescence ratio: 1.12

## CTCGCAGGGA
  switch fluorescence ratio: 1.12

## ATGTTGCTCA
  switch fluorescence ratio: 1

## GGTTGGACGG
  switch fluorescence ratio: 0.951

## CCTTGGGGAG
  switch fluorescence ratio: 0.988

## AGGCGCCTGC
  switch fluorescence ratio: 0.976

## ACCGGGTTAG
  switch fluorescence ratio: 0.993

## GAACGGACGC
  switch fluorescence ratio: 1.11

## GGTTAAGGAA
  switch fluorescence ratio: 0.972

## TTGGGTATCC
  switch fluorescence ratio: 0.928

## GTAGTACTG
  switch fluorescence ratio: 1.04

## TCTGGCCTAT
  switch fluorescence ratio: 1.02

## AAGCCTAGGG
  switch fluorescence ratio: 1.03

## AGTTTTGTCT
  switch fluorescence ratio: 0.957

## GATGCGTATT
  switch fluorescence ratio: 0.975

## CGGAAATGGT
  switch fluorescence ratio: 1.04

## GGTGAATCGG
  switch fluorescence ratio: 0.963

## GGGCGGGGCC
  switch fluorescence ratio: 0.982

## GAGTCAGCCT
  switch fluorescence ratio: 1.02

## ACTGAGTGAC
  switch fluorescence ratio: 1.07

## GAGACTTGGA
  switch fluorescence ratio: 1.03

## ATTCAAGATT
  switch fluorescence ratio: 0.991

## AGTAGAAAGT
  switch fluorescence ratio: 0.988

## ACATTACCGT
  switch fluorescence ratio: 1.38

## TGAGGACGGT
  switch fluorescence ratio: 1.01

## TAAACTTTGA
  switch fluorescence ratio: 1.06

## CCGGGGCCAT
  switch fluorescence ratio: 1.26

## ATGAGGTCAT
  switch fluorescence ratio: 0.963

## TTCATGTGCT
  switch fluorescence ratio: 0.995

## CAGACATGTC
  switch fluorescence ratio: 0.99

## CGTGTATACG
  switch fluorescence ratio: 1.01

## CAAAGGGGG
  switch fluorescence ratio: 1.02

## GGGTGCACTA
  switch fluorescence ratio: 0.996

## AGTGTATGAC
  switch fluorescence ratio: 1

## ATCCGTTGGT
  switch fluorescence ratio: 1.06

## CTGGTCACCT
  switch fluorescence ratio: 1.07

## GTTGTGACGG
  switch fluorescence ratio: 0.985

## GAAAGGGTCG
  switch fluorescence ratio: 0.909

## AGATGACACA
  switch fluorescence ratio: 1.02

## ATGTACGAAC
  switch fluorescence ratio: 1.35

## AACCAAGGCA
  switch fluorescence ratio: 1.13

## ACGGTGCGCG
  switch fluorescence ratio: 1.01

## TATTGATATG
  switch fluorescence ratio: 1.02

## ACTTACTTGA
  switch fluorescence ratio: 1.11

## TGTCTTATAT
  switch fluorescence ratio: 1.01

## GTCTTAATCT
  switch fluorescence ratio: 0.98

## TGCTGGAAGC
  switch fluorescence ratio: 1

## ATAACATTCT
  switch fluorescence ratio: 1.1

## AAATGGTTGA
  switch fluorescence ratio: 0.969

## TATTAGCAGA
  switch fluorescence ratio: 1.02

## TTTTGTCGA
  switch fluorescence ratio: 0.962

## GTGACGAGTC
  switch fluorescence ratio: 1

## GCAGATGGTC
  switch fluorescence ratio: 1.06

## TGTGAAAGAG
  switch fluorescence ratio: 0.942

## ATTGTAAAGG
  switch fluorescence ratio: 0.969

## CGTTATGTTA
  switch fluorescence ratio: 0.96

## ATGGACCGTC
  switch fluorescence ratio: 1.02

## AACTGAGATA
  switch fluorescence ratio: 1

## GCAGAGGTCT
  switch fluorescence ratio: 1.03

## CAGGGTGAAA
  switch fluorescence ratio: 1.11

## GTAGCTGGCG
  switch fluorescence ratio: 1.06

## TACGAACCGG
  switch fluorescence ratio: 1.19

## TTAGCGAACT
  switch fluorescence ratio: 1.1

## GCTTTCTGGG
  switch fluorescence ratio: 0.982

## ACTAGCATTT
  switch fluorescence ratio: 1.02

## TGTGGTTTCG
  switch fluorescence ratio: 0.997

## AGAATCGCTC
  switch fluorescence ratio: 0.975

## CCTCGGTGAA
  switch fluorescence ratio: 1.75

## ACGACGCGCC
  switch fluorescence ratio: 5.33

## ATGAACGCGG
  switch fluorescence ratio: 0.953

## CGGAGATGTT
  switch fluorescence ratio: 0.995

## CGACGACCTG
  switch fluorescence ratio: 1.02

## TGGTACTTT
  switch fluorescence ratio: 1.01

## AAAGCCCGGC
  switch fluorescence ratio: 1.01

## AGTTTAAGGG
  switch fluorescence ratio: 1.01

## TGTATAATAT
  switch fluorescence ratio: 1.02

## GTTAATGGAC
  switch fluorescence ratio: 0.993

## CGCGCCTCGT
  switch fluorescence ratio: 1.01

## AATAACTGCG
  switch fluorescence ratio: 1

## AGGGGTCCAG
  switch fluorescence ratio: 1.08

## AATGTACCGT
  switch fluorescence ratio: 1.08

## AGAGATGTAT
  switch fluorescence ratio: 0.986

## GGGTTCGGAC
  switch fluorescence ratio: 1.01

## GTCGTGTGTG
  switch fluorescence ratio: 0.988

## TCGGATCGGT
  switch fluorescence ratio: 0.959

## GTGCCAACCA
  switch fluorescence ratio: 1.01

## AACTGGGACC
  switch fluorescence ratio: 1.02

## ACGATGCTCG
  switch fluorescence ratio: 1.01

## GACGTATACA
  switch fluorescence ratio: 1.16

## ACACCAAGTT
  switch fluorescence ratio: 1.04

## ATCTTTGTGG
  switch fluorescence ratio: 0.942

## ATATCGAAAG
  switch fluorescence ratio: 0.99

## GGCGTAGTTT
  switch fluorescence ratio: 1.02

## AGGCTAAAAA
  switch fluorescence ratio: 1

## TCGAGTTAGG
  switch fluorescence ratio: 0.995

## AAAGGATTC
  switch fluorescence ratio: 0.998

## CTGGGGA
  switch fluorescence ratio: 1.01

## CGTGAACTCA
  switch fluorescence ratio: 1.08

## TCCGTTATAA
  switch fluorescence ratio: 2.63

## TTTTGCGGTA
  switch fluorescence ratio: 1.03

## CTAGGTTTCC
  switch fluorescence ratio: 1.02

## TTGTTCATGC
  switch fluorescence ratio: 0.974

## TGGTTTAGTA
  switch fluorescence ratio: 1.02

## GTGTCAAGAT
  switch fluorescence ratio: 1

## CTTGGTGTT
  switch fluorescence ratio: 1

## AGGTGACTAA
  switch fluorescence ratio: 1.03

## TAACCCTGTG
  switch fluorescence ratio: 0.974

## GGGTGCACGT
  switch fluorescence ratio: 1.01

## GGGACCAGTC
  switch fluorescence ratio: 1.01

## AATTTGTGCC
  switch fluorescence ratio: 1.07
